No constants are given. Whether binding was seen depends on the method and setting. For part of these data: Binding seen in cells or lysates may run through a third protein. Some entries that bind do so weakly or less than the wild type. Sequences can lack the tags named with a protein.

Assay [1] concerns the target T1, Atg38 [73-212], yeast two-hybrid fusion (S. pombe) (UniProt O94427).
T1 sequence: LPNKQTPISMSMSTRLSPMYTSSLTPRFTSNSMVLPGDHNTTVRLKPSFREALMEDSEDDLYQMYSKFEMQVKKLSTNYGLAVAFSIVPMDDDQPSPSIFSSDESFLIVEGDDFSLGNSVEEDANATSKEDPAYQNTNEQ
The experiment in a line: two-hybrid; … Two-Hybrid System 3, modified pGBKT7 bait and pGADT7 prey, strain AH109; HIS3 and ADE2 reporters on triple and quadruple dropout media.

Assay [2] has as its target T2, Atg38, yeast two-hybrid fusion (S. pombe) (UniProt O94427).
T2 sequence: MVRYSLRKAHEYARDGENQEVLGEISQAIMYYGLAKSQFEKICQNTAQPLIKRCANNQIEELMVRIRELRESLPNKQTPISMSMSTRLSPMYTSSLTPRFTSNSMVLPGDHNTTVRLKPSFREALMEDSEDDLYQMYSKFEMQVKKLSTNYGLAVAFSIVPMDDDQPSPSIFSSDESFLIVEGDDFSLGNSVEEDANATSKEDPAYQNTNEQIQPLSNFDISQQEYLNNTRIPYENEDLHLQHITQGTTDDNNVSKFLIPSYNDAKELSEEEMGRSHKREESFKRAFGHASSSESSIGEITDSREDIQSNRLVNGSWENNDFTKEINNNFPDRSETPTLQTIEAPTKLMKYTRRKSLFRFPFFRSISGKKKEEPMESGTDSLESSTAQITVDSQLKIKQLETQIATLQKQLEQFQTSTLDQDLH
Described as above.

For assay [3], the target named is T3, GST-Atg38[161–190] (S. pombe) (UniProt O94427).
T3 sequence: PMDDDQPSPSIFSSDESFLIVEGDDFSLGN
Briefly: pull-down; supernatants of E. coli lysates with GST or GST-fused Atg38 constructs mixed with lysates with HA-fused Atg8 constructs, 4°C, bound to glutathione Sepharose; 1× PBS pH 7.5, 200 mM NaCl, 10% glycerol, 0.05% NP-40; blot with antibody against HA.

In assay [4] the target is T4, GST-Atg38[161–190]^F178A,V181A (S. pombe) (UniProt O94427).
T4 sequence: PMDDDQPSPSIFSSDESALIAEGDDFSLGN
The assay is described as above.

The target of assay [5] is T5, mCherry-tagged wild-type Atg38 (S. pombe) (UniProt O94427).
T5 sequence: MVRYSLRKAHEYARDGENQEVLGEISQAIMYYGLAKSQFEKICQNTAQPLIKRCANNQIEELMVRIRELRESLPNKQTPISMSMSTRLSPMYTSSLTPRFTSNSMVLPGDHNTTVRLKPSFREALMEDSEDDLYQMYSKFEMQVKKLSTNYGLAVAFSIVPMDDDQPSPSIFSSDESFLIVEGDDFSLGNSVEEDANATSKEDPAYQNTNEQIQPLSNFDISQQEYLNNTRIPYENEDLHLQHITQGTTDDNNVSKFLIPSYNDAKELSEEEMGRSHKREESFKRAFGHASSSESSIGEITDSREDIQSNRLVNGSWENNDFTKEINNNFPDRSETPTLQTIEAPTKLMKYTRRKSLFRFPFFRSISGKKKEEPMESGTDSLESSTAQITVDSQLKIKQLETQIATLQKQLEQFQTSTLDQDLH
Briefly: co-IP; S. pombe lysates (50 mM HEPES pH 7.5, 150 mM NaCl, 1 mM EDTA, 1 mM DTT, 0.05% NP-40, 10% glycerol); mCherry-tagged Atg38 precipitated with mCherry-Trap agarose beads; blots with antibody against mCherry or GFP.

Assay [6] addresses T6, GST-Atg38[161–190] (S. pombe), O94427.
T6 chain: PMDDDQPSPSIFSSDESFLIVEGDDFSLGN
Briefly: pull-down; supernatants of E. coli lysates with GST or GST-fused Atg38 constructs mixed with lysates with HA-fused Atg8 constructs, 4°C, bound to glutathione Sepharose; 1× PBS pH 7.5, 200 mM NaCl, 10% glycerol, 0.05% NP-40; blot with antibody against HA. Conditions: remark: other sources report otherwise.

B1: Atg8, yeast two-hybrid fusion (protein, UniProt O94272 1-121)
chain: MRSQFKDDFSFEKRKTESQRIREKYPDRIPVICEKVDKSDIAAIDKKKYLVPSDLTVGQFVYVIRKRIKLSPEKAIFIFIDEILPPTAALMSTIYEEHKSEDGFLYITYSGENTFGTVFPF
With B1, the binding entry in assay [1] and in assay [2] was “binds” each time.

B2: HA-Atg8 (protein, UniProt O94272 1-116)
chain: MRSQFKDDFSFEKRKTESQRIREKYPDRIPVICEKVDKSDIAAIDKKKYLVPSDLTVGQFVYVIRKRIKLSPEKAIFIFIDEILPPTAALMSTIYEEHKSEDGFLYITYSGENTFG
In the case of B2, the binding entry in assay [3] is “binds”; in assay [4], “no binding”.

B3: GFP-tagged Atg8 (protein, UniProt O94272 1-116)
chain: MRSQFKDDFSFEKRKTESQRIREKYPDRIPVICEKVDKSDIAAIDKKKYLVPSDLTVGQFVYVIRKRIKLSPEKAIFIFIDEILPPTAALMSTIYEEHKSEDGFLYITYSGENTFG
As for B3, the binding result in assay [5] was “binds”.

B4: HA-Atg8^P52A,R67A, O94272 1-116 (protein)
chain: MRSQFKDDFSFEKRKTESQRIREKYPDRIPVICEKVDKSDIAAIDKKKYLVASDLTVGQFVYVIRKAIKLSPEKAIFIFIDEILPPTAALMSTIYEEHKSEDGFLYITYSGENTFG
For B4, the binding entry in assay [6] is “no binding”.

Values taken from PMC7595586.
